According to PubChem BioAssay AID588855 (National Center for Advancing Translational Sciences (NCATS), 2011):
The campaign covered roughly 410,000 compounds. About 5,000 (1.2%) were called active. Inconclusive results, whose numbers are uncertain, are shown with a selection of clear calls. Calls follow the shape of the dose curve; as a rule, active = well fitted inhibition curve with a large enough effect; inconclusive = small, poorly fitted or top-dose-only effect; inactive = no such curve, though single readings can be large or run the other way. Potencies beside an inconclusive call are fits to weak or partial responses and may not hold up.

assay: qHTS for Inhibitors of TGF-b; settings: HepG2 CAGA-GFP TGF-b/SMAD3 reporter, GFP fluorescence, 18 h, TGF-beta stimulated, 500 pg/mL final; series mostly up to 46.1 µM; activity, negative = inhibition: at the top concentration; also: nearly all actives have a fitted effect of over 65% in size
From the text: TGF-b is a main component in the TGF-b signaling pathway which plays diverse roles in cellular and development pathways. TGF-b is the mediated by the transcription factors Smads. Although the Smad-dependent pathway is the primary canonical TGF-b signaling node, TGF-b1 can also activate alternative signaling pathways, including those involving MAPK (ERK, JNK and p38). This interaction may mediate or enhance Smad-dependent responses, or can exert Smad-independent effects. The complexity of this signaling cascade allows the TGF-b superfamily to perform unique, overlapping or redundant functions. We believe that targeting the TGF-beta pathway at the Smad-transcription factor level may eliminate the consequences of disrupting the entire pathway and offer specificity without affecting other signaling pathways. Smad3 is the primary transducer of TGF-b's signals and Smad3 regulates many functions attributed to TGF-b signaling. We hypothesize that Smad3 inhibitors will selectively eliminate Smad3-specific TGF-beta signals without undesired off-target effects. We aim to identify Smad3-small molecule antagonists using a quantitative high throughput screening (qHTS) approach.
A high-throughput assay was developed to screen the NIH Molecular Libraries Small Molecule Repository (MLSMR). This is a cell based assay, where TGF-b is tagged with GFP. A counterscreen is run that looks at cytotoxicity (please see summary AID).
MH087449NIH Chemical Genomics Center [NCGC]
NIH Molecular Libraries Probe Centers Network [MLPCN]
Assay Submitter (PI): Sushil Rane, National Institute of […]
Suspensions of trypsinized HEPG2 CAGA-GFP cells were dispensed into white, tissue culture-treated, solid 1536-well plates at 5uL/well (1000 cells/well final concentration) in DMEM medium supplemented with 1% FBS. Plates were incubated at 37 degrees C for 2 hours, after which 23 nL of compounds or DMSO were delivered to each well using a pin tool. One uL of recombinant TGF-beta in DMEM (1% FBS) was then dispensed (500 pg/mL final concentration), and plates were incubated at 37 degrees C for 18 hours. The plates were measured on an Acumen eX3 Explorer plate reader for GFP fluorescence (ex488/em500-530). GFP values were calculated by determining the mean GFP fluorescence of individual cells, and compiling these values for each well to determine a total well GFP signal. The %Activity was determined from the corrected fluorescence values. A titration of the known TGF-B inhibitor SB431542 was included to monitor plate performance, while unstimulated HEPG2 (-TGF-B) control wells were used to normalize %Activity of identified inhibitors; unstimulated wells corresponded to 100%Activity (full inhibition), while stimulated cell controls (+DMSO) were used to normalize 0%Activity (no inhibition).
Concentration-response curves were fitted to the signals arising from the resulting fluorescence. The concentration-effect curves were then classified based on curve quality (r2), response magnitude and degree of measured activity, and compounds were subsequently categorized based on their curve class.
Potency is read from the fitted curve at half-maximal effect; tags tell the direction and shape of the fitted curve.

SMILES | activity, negative = inhibition | Potency
O=C(Cc1ccccc1)N1CCCC1c1ccccc1 (centres undefined) | inactive: -3.53% | –
CCCCOc1ccc(C(=O)N/C(=C/C=C/c2ccccc2)C(=O)NCCO)cc1 | – | inconclusive: 20 µM [inhibitor, single point]
CCOC(=O)N[C@H](Cc1c[nH]c2ccccc12)C(=O)Nc1cccc(Cl)c1 | – | inconclusive: 35.5 µM [inhibitor, partial curve, poor fit]
COc1ccc(OC)c(NC(=O)c2nc(S(=O)(=O)Cc3ccc(F)cc3)ncc2Cl)c1 | – | active: 6.31 µM
O=C(O)CC(CC(=O)Nc1ccc(-c2ccccc2)cc1)c1ccccc1 (centres undefined) | inactive: 15.9% | –
NC(Cc1ccc(C(F)(F)F)cc1)c1csc(NC(=O)Nc2ccccc2Cc2ccccc2)n1 (centres undefined) | – | active: 3.16 µM
O=C(c1ccc2c(c1)OCO2)N1CCc2ccccc2C1 | inactive: 0.819% | –
Cc1ccc2nc(-c3ccc(NS(C)(=O)=O)cc3)cc(-c3ccccc3)c2c1 | – | inconclusive: 35.5 µM [inhibitor, single point]
CCCN(CC(=O)Nc1ccccc1C)C(=O)c1ccc(N2CCCCC2)c([N+](=O)[O-])c1 | inactive: -8.07% | –
O=C1OC(Oc2ccc(Br)cc2)(c2ccccc2)c2ccccc21 (centres undefined) | – | inconclusive: 35.5 µM [inhibitor, single point]
Cc1cccc(C(=O)N(CC(=O)Nc2sc(C)c(C)c2C(N)=O)C2CCCC2)c1 | inactive: -2.12% | –
Cc1ccc(-c2noc(CNC(=O)c3ccc(C)c(Cl)c3)n2)cc1 | – | inconclusive: 25.1 µM [inhibitor, single point]
CNCCOc1ccccc1-c1ccccc1 | inactive: 2.41% | –
Cc1nn(-c2ccccc2)c(Cl)c1/C=C/C(=O)c1ccc(O)cc1 | – | inconclusive: 8.91 µM [inhibitor, single point]
CCCCNC(=O)c1[nH]c(=O)cnc1-c1ccccc1 | inactive: 2.82% | –
Cc1c(CCC(=O)N2CCC(C(=O)O)(c3ccccc3)CC2)c(=O)oc2cc3oc4c(c3cc12)CCCC4 | – | inconclusive: 1.41 µM [inhibitor, partial curve, poor fit]
O=C1c2ccccc2NC(c2cccc(O)c2)N1c1ccccc1 (centres undefined) | inactive: 1.93% | –

SMILES | activity, negative = inhibition | Potency
COC(=O)NNC(=O)C(C)Oc1ccc(Cl)cc1Cl (centres undefined) | – | inconclusive: 11.2 µM [inhibitor, partial curve]
CN(C)c1ccc(/C=C(\C#N)C(=O)OCC(=O)N(C)C2CCS(=O)(=O)C2)cc1 (centres undefined) | – | inconclusive: 3.16 µM [inhibitor, single point]
COc1ccc(-c2cnc3c(c2)CCC3(C#N)C#N)cc1 | – | inconclusive: 10 µM [inhibitor, partial curve, poor fit]
Cc1cc(C)n(-c2nnc(NCc3ccc(Cl)cc3)nn2)n1 | – | inconclusive: 10 µM [inhibitor, partial curve]
CCc1ccc(OCC(=O)N(Cc2ccc(C(C)C)cc2)C2CCS(=O)(=O)C2)cc1 (centres undefined) | – | inconclusive: 35.5 µM [inhibitor, single point]
Cc1nc(Cl)sc1C(=O)Nc1ccccc1 | inactive: 23% | –
Cc1c(C(=O)N/N=C/c2ccccc2)[nH]c2ccc(Cl)cc12 | – | inconclusive: 11.2 µM [inhibitor, partial curve]
O=c1[nH]c(=O)n(Cc2ccco2)c2c1C(C(F)(F)F)(C(F)(F)F)N=C(CCC1CCCCC1)N2 | inactive: -6.4% | –
O=C(Nc1cccc(F)c1)C1CCN(C(=O)c2ccc(Br)cc2)CC1 | – | inconclusive: 35.5 µM [inhibitor, single point]
CC(=O)N/C(=C\c1ccccc1)C(=O)OCC(=O)N(CC(C)C)c1c(N)n(Cc2ccccc2)c(=O)[nH]c1=O | inactive: 0.114% | –
COC(=O)c1sc2ccccc2c1-n1cccc1C(=O)C(=O)Nc1ccc(F)cc1 | – | inconclusive: 3.55 µM [inhibitor, single point]
Cc1ccc(NCCN(C)C)c2c(=O)c3cc(O)ccc3sc12 | – | inconclusive: 22.4 µM [inhibitor, single point]
COc1ccc(-c2c(C)cc3oc(=O)cc(-c4ccccc4)c3c2C)cc1 | – | inconclusive: 17.8 µM [inhibitor, single point]
O=C(Cn1cnc2sc(-c3ccccc3)cc2c1=O)NCc1ccco1 | inactive: 27.1% | –
C=CCOC(=O)C1=C[C@H](c2csc3ccccc23)C[C@H](OCc2ccc(CO)cc2)O1 | inactive: -30.8% | –
O=C1CSC2(C(=O)N(Cc3cccc(C(F)(F)F)c3)c3ccccc32)N1c1ccc(F)c(F)c1 (centres undefined) | – | inconclusive: 22.4 µM [inhibitor, single point]
Cc1ccc(C(=O)Nc2cc3[nH]c(=O)oc3cc2C)cc1 | – | inconclusive: 35.5 µM [inhibitor, single point]
